Where a name gives a salt, the structure may show the parent alone. Some of these results come from one statement about several compounds together. For at least one compound, name, drawing or mass did not settle the structure.
The molecules below were run against KPC-2 β-lactamase (Klebsiella pneumoniae, UniProt Q9F663) (assay: Inhibition kinetics of KPC-2 with nitrocefin as reporter substrate). Details: KPC-2, 100 μM nitrocefin, 1×PBS pH 7.4, 25° C.
KPC-2 β-lactamase, sequence (Q9F663 25-293 limits assumed): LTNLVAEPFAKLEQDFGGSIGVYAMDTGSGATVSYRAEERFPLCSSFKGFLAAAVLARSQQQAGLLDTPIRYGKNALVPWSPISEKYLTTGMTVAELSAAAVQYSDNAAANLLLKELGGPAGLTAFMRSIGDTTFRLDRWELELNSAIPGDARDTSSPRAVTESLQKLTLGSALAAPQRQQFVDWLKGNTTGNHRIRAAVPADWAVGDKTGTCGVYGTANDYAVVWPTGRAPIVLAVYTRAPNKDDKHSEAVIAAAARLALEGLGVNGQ
Assay type: biochemical, K. pneumoniae
Method: Inhibition or inactivation of KPC-2 by test inhibitors was assessed using 100 μM nitrocefin (NCF) as a reporter substrate. Assays were performed in 1×PBS pH 7.4, 0.1 mg/ml BSA, in 96-well half area plates, 50 μl reaction volume. NCF was dissolved in DMSO and diluted in assay buffer. Test inhibitors were dissolved in water or DMSO and serially diluted in the assay with final concentrations between […] The enzyme activity in the presence of varying concentrations of test inhibitor was determined by monitoring the hydrolysis of NCF spectrophotometrically at 486 nm, for 5 minutes, 25° C., using a SpectraMax Plus384 microplate reader with SoftMax Pro software (Molecular Devices). Data analysis was performed using GraphPad Prism (GraphPad Software, Inc.).
Progress curves were fit to a first-order rate decay equation (Eq. 1) to determine kobserved (kobs).
kobs vs. inhibitor concentration [I] curves were then fit to Eq.2 to determine the inhibitor dissociation constant (K) and the first order rate constant of enzyme inactivation at infinite inhibitor concentration (kinact). […] Yt=V0*(1−e^(−kobs^*t))/kobs Eq. 1 Where Y is the absorbance at time t, Vo is the uninhibited enzyme velocity, kobs is the observed rate constant of the enzyme inactivation. kobs=kinact*[I]/([I]+K(1+S/Km)) Eq. 2 Where S is the NCF concentration, Km is the KPC-2 Km for NCF
In the case of `CN(Cc1cc([C@@H]2CC[C@@H]3CN2C(=O)N3OS(=O)(=O)O)no1)C(=N)N` [Compound 614, (2S,5R)-2-(5-((1-methylguanidino)methyl)isoxazol-3-yl)-7-oxo-1,6-diazabicyclo[3.2.1]octan-6-yl hydrogen sulfate], the “inactivation efficiency (kinact/K)” value is reported as 100000 to 999000 M⁻¹ s⁻¹.
`NCc1cc([C@@H]2CC[C@@H]3CN2C(=O)N3OS(=O)(=O)O)no1` [Compound 601, (2S,5R)-2-(5-(aminomethyl)isoxazol-3-yl)-7-oxo-1,6-diazabicyclo[3.2.1]octan-6-yl hydrogen sulfate] was tested, and the “inactivation efficiency (kinact/K)” value was 100000 to 999000 M⁻¹ s⁻¹.
In the case of `N[C@H]1C[C@@H](c2cc([C@@H]3CC[C@@H]4CN3C(=O)N4OS(=O)(=O)O)no2)C1` [Compound 616, (2S,5R)-2-(5-((1s,3R)-3-aminocyclobutyl)isoxazol-3-yl)-7-oxo-1,6-diazabicyclo[3.2.1]octan-6-yl hydrogen sulfate], the “inactivation efficiency (kinact/K)” value is reported as 100000 to 999000 M⁻¹ s⁻¹.
In the case of `O=C1N2C[C@@H](CC[C@H]2c2cc(CC3CCNCC3)on2)N1OS(=O)(=O)O` [Compound 627, (2S,5R)-7-oxo-2-(5-(piperidin-4-ylmethyl)isoxazol-3-yl)-1,6-diazabicyclo[3.2.1]octan-6-yl hydrogen sulfate], the “inactivation efficiency (kinact/K)” value is reported as 100000 to 999000 M⁻¹ s⁻¹.
With `N=C(N)NCC(O)c1cc([C@@H]2CC[C@@H]3CN2C(=O)N3OS(=O)(=O)O)no1` (single isomer, unassigned) [Compound 611, (2S,5R)-2-(5-((R*)-2-guanidino-1-hydroxyethyl)isoxazol-3-yl)-7-oxo-1,6-diazabicyclo[3.2.1]octan-6-yl hydrogen sulfate] the “inactivation efficiency (kinact/K)” value was 100000 to 999000 M⁻¹ s⁻¹.
In the case of `O=C1N2C[C@@H](CC[C@H]2c2cc(CC3CNC3)on2)N1OS(=O)(=O)O` [Compound 618, (2S,5R)-2-(5-(azetidin-3-ylmethyl)isoxazol-3-yl)-7-oxo-1,6-diazabicyclo[3.2.1]octan-6-yl hydrogen sulfate], the “inactivation efficiency (kinact/K)” value is reported as 100000 to 999000 M⁻¹ s⁻¹.
In the case of `O=C1N2C[C@@H](CC[C@H]2c2cc(CCNC3CNC3)on2)N1OS(=O)(=O)O` [Compound 623, (2S,5R)-2-(5-(2-(azetidin-3-ylamino)ethyl)isoxazol-3-yl)-7-oxo-1,6-diazabicyclo[3.2.1]octan-6-yl hydrogen sulfate], the “inactivation efficiency (kinact/K)” value is reported as 100000 to 999000 M⁻¹ s⁻¹.
With `N=C(N)NC1(Cc2cc([C@@H]3CC[C@@H]4CN3C(=O)N4OS(=O)(=O)O)no2)CC1` [Compound 613, (2S,5R)-2-(5-((1-guanidinocyclopropyl)methyl)isoxazol-3-yl)-7-oxo-1,6-diazabicyclo[3.2.1]octan-6-yl hydrogen sulfate] the “inactivation efficiency (kinact/K)” value was 100000 to 999000 M⁻¹ s⁻¹.
In the case of `O=C1N2C[C@@H](CC[C@H]2c2cc(CNC3CNC3)on2)N1OS(=O)(=O)O` [Compound 622, (2S,5R)-2-(5-((azetidin-3-ylamino)methyl)isoxazol-3-yl)-7-oxo-1,6-diazabicyclo[3.2.1]octan-6-yl hydrogen sulfate], the “inactivation efficiency (kinact/K)” value is reported as 100000 to 999000 M⁻¹ s⁻¹.
For `O=C1N2C[C@@H](CC[C@H]2c2cc(COC3CNC3)on2)N1OS(=O)(=O)O` [Compound 624, (2S,5R)-2-(5-((azetidin-3-yloxy)methyl)isoxazol-3-yl)-7-oxo-1,6-diazabicyclo[3.2.1]octan-6-yl hydrogen sulfate], the “inactivation efficiency (kinact/K)” value was 100000 to 999000 M⁻¹ s⁻¹.
With `N=C(N)NCCNC(=O)c1cc([C@@H]2CC[C@@H]3CN2C(=O)N3OS(=O)(=O)O)no1` [Compound 608, (2S,5R)-2-(5-((2-guanidinoethyl)carbamoyl)isoxazol-3-yl)-7-oxo-1,6-diazabicyclo[3.2.1]octan-6-yl hydrogen sulfate] the “inactivation efficiency (kinact/K)” value was 1e+06 to 5e+06 M⁻¹ s⁻¹.
With `O=C1N2C[C@@H](CC[C@H]2c2cc(CCNC3CCNCC3)on2)N1OS(=O)(=O)O` [Compound 609, (2S,5R)-7-oxo-2-(5-(2-(piperidin-4-ylamino)ethyl)isoxazol-3-yl)-1,6-diazabicyclo[3.2.1]octan-6-yl hydrogen sulfate] the “inactivation efficiency (kinact/K)” value was 100000 to 999000 M⁻¹ s⁻¹.
